Data reported in the BET-seq Pho4 binding data (Le et al. 2018).
Some of the results follow. Values were computed here from the reads of four pooled replicates and scatter widely.

Target: T1, Pho4 (S. cerevisiae) (UniProt P07270)
T1 sequence: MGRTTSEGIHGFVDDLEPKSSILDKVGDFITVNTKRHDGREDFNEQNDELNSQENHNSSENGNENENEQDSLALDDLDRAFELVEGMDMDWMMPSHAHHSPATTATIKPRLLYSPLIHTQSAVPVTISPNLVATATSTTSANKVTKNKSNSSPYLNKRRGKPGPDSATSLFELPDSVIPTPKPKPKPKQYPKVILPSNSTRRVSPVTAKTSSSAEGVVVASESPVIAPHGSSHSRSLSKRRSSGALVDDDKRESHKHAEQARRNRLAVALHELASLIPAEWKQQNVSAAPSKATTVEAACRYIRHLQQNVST
Assay: relative binding free energy (BET-seq); higher = weaker binding
Conditions: reference: library average

Relative binding free energy, 0.06 kcal/mol:
TATATCACGTGGTGAG, AGTATCACGTGGTGCG, GGGCGCACGTGTTAAT, GTCGGCACGTGATGGT, TGGTACACGTGGTTGT, GGTGGCACGTGTGAAT, GTTACCACGTGTAGGG, TGTGTCACGTGGTCGA

Relative binding free energy, 0.46 kcal/mol:
ATAATCACGTGAATAG

Relative binding free energy, -0.28 kcal/mol:
TGTACCACGTGGGGTA

Relative binding free energy, 0.09 kcal/mol:
AACTGCACGTGTTGGT, TTTATCACGTGGCGAT, AATAACACGTGAGTGG, ATTGACACGTGGAAGT, CAGGGCACGTGAAAGT

Relative binding free energy, -0.08 kcal/mol:
AGTCACACGTGGGTGA, AACGACACGTGGTGGT, GAGCGCACGTGTTGTG, GGGTGCACGTGGCGAA, TAAGTCACGTGGGTCT, TTCTACACGTGGGTTA

Relative binding free energy, -0.29 kcal/mol:
ATTGGCACGTGGCTGA

Relative binding free energy, 0.29 kcal/mol:
TTCTTCACGTGATATA, GGATTCACGTGGGTGA, ATTTTCACGTGATTTA

Relative binding free energy, 0.01 kcal/mol:
AGTAGCACGTGTGGTA, GGGGGCACGTGTGACA, TCGTGCACGTGTGAAG

Relative binding free energy, -0.06 kcal/mol:
AGCGGCACGTGATGGG, TAGAACACGTGGGCTT, TATGGCACGTGCGTGA, ATGGCCACGTGTGCTG

Relative binding free energy, 0.37 kcal/mol:
TTTTTCACGTGGAGGG, CGTCTCACGTGATAGG

Relative binding free energy, -0.21 kcal/mol:
AGAGGCACGTGGTGTG, ACAGGCACGTGGTTGT

Relative binding free energy, -0.17 kcal/mol:
GTGGCCACGTGGTATG, AAGGGCACGTGTTATA

Relative binding free energy, 0.17 kcal/mol:
GCATGCACGTGATGTT, AGCTACACGTGATGTG, CTTTTCACGTGTACTT, GGGAACACGTGTGATT, TTTGACACGTGAGATA, CGTCTCACGTGGCGGG, TTACTCACGTGTTGGT

Relative binding free energy, 0.15 kcal/mol:
ACAGTCACGTGTAAGT, TTCATCACGTGGCTGT, GTTGTCACGTGGCGTG, ATTATCACGTGCAGTG, CAGAACACGTGTGGGA, AAGATCACGTGTAGGG, TGGCGCACGTGTGAAT

Relative binding free energy, -0.04 kcal/mol:
GGAGGCACGTGTACTT, TAAAGCACGTGCTGGT

Relative binding free energy, -0.19 kcal/mol:
AAGGGCACGTGGTGCG, TGTGGCACGTGGCGCT

Relative binding free energy, -0.14 kcal/mol:
TTGGGCACGTGTCCTG, TGCACCACGTGTTGGG, CTAGTCACGTGGGGAT, TGTCGCACGTGGGAGT

Relative binding free energy, -0.07 kcal/mol:
TGAAACACGTGTTTTT, TGTACCACGTGGTCTT, TGGTCCACGTGTCGTT, TTTGACACGTGGTCGG

Relative binding free energy, -0.26 kcal/mol:
AGGTCCACGTGGGGGT

Relative binding free energy, -0.27 kcal/mol:
GTGCGCACGTGGCGGG

Relative binding free energy, -0.12 kcal/mol:
CGTGCCACGTGGGAGG

Relative binding free energy, 0.33 kcal/mol:
TTATTCACGTGTAGTC, TAGTTCACGTGTGCGT, GGTTTCACGTGCAGAT

Relative binding free energy, -0.22 kcal/mol:
TAAGGCACGTGGCTGG

Relative binding free energy, 0.36 kcal/mol:
TAGGCCACGTGAAGTG, ATATTCACGTGATTGG, GGTCTCACGTGTACGT

Relative binding free energy, -0.31 kcal/mol:
CGGGGCACGTGCGTGA

Relative binding free energy, -0.2 kcal/mol:
TATAACACGTGGTATG

Relative binding free energy, 0.11 kcal/mol:
AGAGTCACGTGTATTT, CGGCGCACGTGAGGCG, GGGTACACGTGACTGG

Relative binding free energy, 0.2 kcal/mol:
TCTATCACGTGTGATT, TATATCACGTGAGGTA, ATATTCACGTGCATGT

Relative binding free energy, 0.26 kcal/mol:
ACGCTCACGTGAGGGG

Relative binding free energy, 0.19 kcal/mol:
GAGTGCACGTGTAGAT, ATGGTCACGTGATGGT

Relative binding free energy, 0.42 kcal/mol:
AGCTTCACGTGGGATG

Relative binding free energy, -0.02 kcal/mol:
TGTTACACGTGTCTTA, CTTATCACGTGGGGCT, GGTGGCACGTGGAGTA, CTATACACGTGTGTTA, TGTGGCACGTGACCTG, ATCGCCACGTGTTGGT

Relative binding free energy, -0.03 kcal/mol:
TCTTGCACGTGATATT, GCGGGCACGTGTTGCG, GTTTGCACGTGGGTGG, AGTATCACGTGGTTAT, GAAGGCACGTGTGTTA, GGTTGCACGTGTTCAT

Relative binding free energy, -0.25 kcal/mol:
TAGAGCACGTGCTAGG

Relative binding free energy, 0.07 kcal/mol:
GTAGACACGTGATGGT

Relative binding free energy, 0.35 kcal/mol:
CGATTCACGTGATTTG, GTTTTCACGTGTGGGT

Relative binding free energy, 0.22 kcal/mol:
TCGGGCACGTGAATAG, ACCGTCACGTGTTTTG

Relative binding free energy, 0.13 kcal/mol:
ATGGTCACGTGGATGA

Relative binding free energy, 0.24 kcal/mol:
GGGCTCACGTGGTTGG

Relative binding free energy, 0.18 kcal/mol:
AGATTCACGTGGTATG, AGGTACACGTGAATGT

Relative binding free energy, -0.13 kcal/mol:
GGTGGCACGTGGGGAG, TTTGACACGTGACGTT, GATTGCACGTGGGTGC, GGTGGCACGTGGGAAA, TTAGTCACGTGCTCGG

Relative binding free energy, 0.14 kcal/mol:
TTTTACACGTGATATA, GGTACCACGTGAAGGT, TTATACACGTGTGGAG, AGTAGCACGTGAATGG

Relative binding free energy, 0 kcal/mol:
TTTTCCACGTGGTGGT, TATAACACGTGGAAGT, TGCAGCACGTGTTGAG, AGTGTCACGTGTCTTT, ATGCACACGTGGTTAT, ATTGGCACGTGATTCG, TGGGTCACGTGCGTCG, GTTAGCACGTGGTTTA, ACTTGCACGTGGTAGA, GTTGTCACGTGCTATG, TTTTGCACGTGTAGCA, GAGTGCACGTGTGCAT, GTTCCCACGTGTTGGG, GGGCGCACGTGTATGA

Relative binding free energy, -0.09 kcal/mol:
TGTTGCACGTGGTCTC, TGCGGCACGTGTCGAG, ATTAACACGTGTTTGG

Relative binding free energy, -0.15 kcal/mol:
CTTTGCACGTGGTAAT, ATTGGCACGTGTCTGA, AGATGCACGTGGGGAA

Relative binding free energy, 0.34 kcal/mol:
AGTTACACGTGAAGAT

Relative binding free energy, 0.25 kcal/mol:
AATTTCACGTGTATGG, GCGCTCACGTGTGGGG, ATGTCCACGTGATTAT, AATTTCACGTGCAGGG, TGGGTCACGTGAGAGG

Relative binding free energy, 0.05 kcal/mol:
AATTGCACGTGATTAA, TATCACACGTGGGGGA

Relative binding free energy, 0.12 kcal/mol:
CATGTCACGTGATGAG, TGGTACACGTGTGACG, ATGTACACGTGAGATT, GTGTACACGTGATCTG, TTTATCACGTGTATGG, CCTTGCACGTGATGGT, GGTGTCACGTGGGCTC

Relative binding free energy, -0.16 kcal/mol:
TGGGGCACGTGTGCAC, TCGGCCACGTGGTGGT, TGAGGCACGTGTGTTA, ATATACACGTGTTGAT, GTGCGCACGTGGGAAG

Relative binding free energy, -0.18 kcal/mol:
AGTCGCACGTGGTGTA, AGGGACACGTGGGCAT, TACAGCACGTGGTTGA, ACTGGCACGTGGGGCG, GTTGACACGTGGGGCA

Relative binding free energy, 0.08 kcal/mol:
TTAATCACGTGGAGTA, AGTCTCACGTGTTGGT, AATATCACGTGGGGAT, AATGACACGTGTTAGT, GTTTACACGTGGTGGT, AGGTGCACGTGAGCAG

Relative binding free energy, 0.27 kcal/mol:
AAATTCACGTGTTTGG, ATCTTCACGTGGAGTG, TCGGTCACGTGTGGCT, TAGTTCACGTGATTTA, GGGTTCACGTGGGCAG, GTCTTCACGTGGTAGG

Relative binding free energy, 0.02 kcal/mol:
TGTGCCACGTGATGGT, TGATGCACGTGTGACT, AGGATCACGTGGCTGG, CAGGGCACGTGTCTTT

Relative binding free energy, 0.32 kcal/mol:
GGTCTCACGTGTGTTT

Relative binding free energy, 0.03 kcal/mol:
GCAGACACGTGGTGGA, TAGCACACGTGTTTGG, ATATTCACGTGGGTGC, TGGGTCACGTGTTTAC

Relative binding free energy, -0.01 kcal/mol:
TGGGCCACGTGTAGGG, TGGGACACGTGTTAGT, TTGAGCACGTGTGATG, TTATGCACGTGCTTGT

Relative binding free energy, 0.04 kcal/mol:
CTTTTCACGTGGTGCT, AATGTCACGTGTACGT, TCTTCCACGTGGGCGG

Relative binding free energy, 0.43 kcal/mol:
ATGTTCACGTGTAGCC

Relative binding free energy, -0.05 kcal/mol:
GTAGGCACGTGTCGGC, AGGGCCACGTGATTTG, GTGGACACGTGCTGGA

Relative binding free energy, 0.31 kcal/mol:
TTATTCACGTGTCGAG, TCTATCACGTGTGGCT

Relative binding free energy, 0.1 kcal/mol:
CTAATCACGTGGTAGT, CAGGTCACGTGCGGCG, TTGTGCACGTGAGACT, TAGGCCACGTGAGTTT, GGGTCCACGTGGATAT

Relative binding free energy, 0.28 kcal/mol:
ATGGTCACGTGTAAGG, TTGTTCACGTGGTGTT, GTAATCACGTGAGGAT

Relative binding free energy, 0.23 kcal/mol:
TCGTACACGTGACGGG, GGTTTCACGTGCTAAT, CATTTCACGTGATGGT, TAAAGCACGTGAAGGA, TCGTTCACGTGGGAAT, GCTGTCACGTGTGGGC, CTTTGCACGTGAGGTA, CAGTTCACGTGTTATT, TCTCTCACGTGGTGGT

Relative binding free energy, -0.1 kcal/mol:
TTTGGCACGTGTTACG, TTGCCCACGTGGGTAT, TAGAGCACGTGGGGAT, CTGTGCACGTGCGAGT, ATGGGCACGTGTCCGG, TATGTCACGTGTGAGC

Relative binding free energy, 0.21 kcal/mol:
CCGTTCACGTGGAGTG, TAGTGCACGTGAAGGT, CTTGTCACGTGATCGT, AAGGTCACGTGGAAAT, GAAGTCACGTGTTGTT

Relative binding free energy, 0.16 kcal/mol:
GTTTTCACGTGGTACT, TTGTTCACGTGGGGCT, CGTATCACGTGTGGGG, GGAATCACGTGTGTAG, ATTTCCACGTGAGTGG, TTAGTCACGTGTAACG
